From ChEMBL document CHEMBL4888484, “Replenishing the malaria drug discovery pipeline: Screening and hit evaluation of the MMV Hit Generation Library 1 (HGL1) against asexual blood stage Plasmodium falciparum ,using a nano luciferase reporter read-out” (2022) come the findings set out here.

Screen size: about 150,000 compounds; about 540 (0.36%) showed an effect of 50% or more. This is one part of the list.

This test concerns Plasmodium falciparum. The experiment in a line: Primary screen in NF54 nanoGlo assay, in single point, at 2uM, 72h; a lower Z score goes with more inhibition. The class given is functional, Erythrocyte. To be noted: timepoint 72 hour.
Regarding `CCOC1CC(N(C)C(=O)c2cc(C3CC3)on2)C12CCC2` (centres undefined), the “% Inhibition” value is -10% and the Z score stood at 0.85.
`O=C(NCCc1ccccc1)c1ccc2c(c1)n(Cc1ccccc1)c(=O)c1ccnn12`: the “% Inhibition” value was -1% and the Z score came to 0.11.
For `O=C(NCCc1cn[nH]c1)Nc1nc(C2CCCCC2)cs1` the same measures were 6% and -0.98.
In the case of `CCCc1nnsc1C(=O)N1CCc2c(cnc3cc(C)nn23)C1`, the “% Inhibition” value is on record as -2% and the Z score was 0.32.
Consider `CCOc1ccc(C(=O)NCc2ccccc2OC)nn1`, for which the “% Inhibition” value is reported as -11% and the Z score is 1.93.
`Cc1ccc(S(=O)(=O)n2c(=O)sc3ccccc32)cc1`: the “% Inhibition” value is reported as -11% and the Z score is 2.05.
`COCCOC[C@H]1CCN(C(=O)c2cccc(C)n2)C1`: the “% Inhibition” value is listed as -10% and the Z score stood at 1.34.
For `O=C(Cc1ccc(F)cc1)Nc1ccc2c(c1)C(=O)N1CCC[C@H]1C(=O)N2`, the “% Inhibition” value is -3% and the Z score was determined as 0.48.
For `Nc1nc(N2CCN(C3CCCCC3)CC2)ncc1C(=O)NCc1ccccc1F`, the “% Inhibition” value is -17% and the Z score stood at 1.98.
Consider `CCc1nc(CN(CC(C)C)C(=O)C2CCC2)[nH]c(=O)c1Cc1ccc(OC)cc1`, for which the “% Inhibition” value came out at 3% and the Z score is given as -0.26.
In the case of `COC1(C)CN(C(=O)c2cnc(C)cn2)C1`, the “% Inhibition” value was -9% and the Z score is listed as 1.21.
Regarding `Cn1ccnc1CN[C@H](c1ccccc1)C(C)(C)C(=O)O`, the “% Inhibition” value came to 0% and the Z score is listed as -0.06.
Turning to `O=C(C1OCC2COCCC21)N(CC1CCCCC1)c1ccccn1` (centres undefined), the “% Inhibition” value was 19% and the Z score is given as -2.22.
Regarding `c1ccc(CC2(CNC3CC3)CC3CCC2C3)cc1` (centres undefined), the “% Inhibition” value is 0% and the Z score was -0.02.
With `COCCN1CCN(Cc2cncs2)CC1=O`, the “% Inhibition” value is -11% and the Z score is 1.73.
The corresponding values for `Cc1cc(C(=O)N2C[C@H]3CC[C@@H](C2)N(Cc2c(C)noc2C)C3=O)[nH]n1` are -6% and 0.53.
`Cc1ccc2c(c1)CCCN2C(=O)CC[C@H]1CCCCO1`: the “% Inhibition” value was -8% and the Z score came out at 0.98.
For `CC[C@@H](CN(CC)C(=O)c1ccc(C(N)=O)cn1)c1ccccc1`, the “% Inhibition” value is reported as 1% and the Z score is -0.07.
Consider `O=C(NCCNc1cc(Nc2ccccn2)ncn1)c1cccc(F)c1`, for which the “% Inhibition” value is reported as -4% and the Z score was 0.68.
For the molecule `C[C@H]1Cc2ccccc2N1C(=O)c1cccc(S(=O)(=O)N2CCOCC2)c1`, the “% Inhibition” value is reported as -6% and the Z score is listed as 0.99.
Regarding `Cc1ccc(C)c(CN2C[C@H](C(=O)NCc3ccncc3)C3(CCOCC3)C2)c1`, the “% Inhibition” value came out at 2% and the Z score was -0.3.
Take `Cc1noc(C)c1CNC(=O)c1ccccc1`: the “% Inhibition” value came out at 4% and the Z score was -0.61.
Consider `COc1ccc(NC(=O)CC2(N3Cc4ccccc4C3=O)CCN(C(C)=O)CC2)cc1Cl`, for which the “% Inhibition” value is -1% and the Z score is reported as 0.19.
Turning to `CCCc1cc(-c2cccc(C(=O)N3CC[C@@H](O)C3)c2)nc(C)n1`, the “% Inhibition” value is on record as -8% and the Z score was found to be 1.49.
As for `COCCn1nnc2cc(S(=O)(=O)N(C)CC(=O)NCc3ccc(F)cc3)ccc21`, the “% Inhibition” value is given as -28% and the Z score is 2.45.
Regarding `CCn1c(Cn2cnc(C#N)n2)nc2cc(F)ccc21`, the “% Inhibition” value is listed as -4% and the Z score is on record as 0.7.
For `CCC1=NO[C@@H](CNC(=O)Nc2cnn(C)c2C)C1`, the “% Inhibition” value is -1% and the Z score is given as 0.23.
`CC(C)CN1CCN2C(=O)[C@H](C)N(C(=O)CCc3nc4ccccc4s3)C[C@H]2C1=O`: the “% Inhibition” value is listed as -12% and the Z score is recorded as 1.09.
Regarding `Cc1cccc(S(=O)(=O)c2cnc(N3CCC(Cc4ccccc4)CC3)nc2N)c1`, the “% Inhibition” value came out at 36% and the Z score is recorded as -4.69.
`O=C(NCCN1CCc2ccccc21)C1(N2CCCC2)CCCCC1`: the “% Inhibition” value was -7% and the Z score worked out at 1.1.
The corresponding values for `Cc1cccc(N2CCN(C(=O)c3cnn4c(C(F)(F)F)cc(-c5cccs5)nc34)C[C@@H]2C)c1` are 0% and 0.04.
Take `CC(C)N1CCN(C(=O)NCc2cc(C3CC3)ccc2F)CC1`: the “% Inhibition” value is 5% and the Z score is -0.75.
The corresponding values for `CCC1CN2CCCC2CN1S(=O)(=O)CC1CCCCO1` (centres undefined) are -6% and 1.05.
Consider `COC(=O)[C@@H](Cc1ccccc1)NC(=O)c1cc(-c2ccccc2Cl)nn1C`, for which the “% Inhibition” value was -15% and the Z score turned out to be 1.71.
The corresponding values for `O=S(=O)(NCC1CCCCC1)c1ccc(-n2cnnn2)cc1` are -1% and 0.25.
For the molecule `COc1ccc2c(c1)C(N1CCN(C(=O)c3ccc(Cl)cc3)[C@@H](C)C1)=Nc1ccc(C)cc1O2`, the “% Inhibition” value amounted to 6% and the Z score is given as -0.8.
As to `c1ccc2c(c1)N=C1C[C@H](N2)[C@H]2CO[C@@H]1O2`, the “% Inhibition” value is reported as 7% and the Z score was -1.12.
As for `O=C(O)c1ccc(N2CCC[C@H](CN3CCCC3)C2)c(NS(=O)(=O)c2ccccc2Cl)c1`, the “% Inhibition” value is recorded as 2% and the Z score is reported as -0.19.
As to `CC1c2[nH]c3ccccc3c2CC2C(=O)N(c3ccccc3C(=O)O)C(=O)N21` (centres undefined), the “% Inhibition” value is -11% and the Z score came out at 1.05.
On to `Cc1nn(-c2ccccc2)c2nc(Cc3ccccc3)nc(N3CCN(C(=O)c4cccc(Br)c4)CC3)c12`, for which the “% Inhibition” value was -8% and the Z score was 1.24.
The corresponding values for `Cc1cnn(-c2cccc(N3CCN[C@H](C)C3)n2)c1` are -13% and 2.04.
Consider `COc1cc(OC)cc(C(=O)N2CCC[C@H](Oc3ccncc3)C2)c1`, for which the “% Inhibition” value is 21% and the Z score is reported as -2.86.
